From PMC12820563, “FoxP3 forms a head-to-head dimer in vivo and stabilizes its multimerization on adjacent microsatellites” come the findings set out here.

Some of the results follow.

This assay deals with T1, MBP-FoxP1dN (Mus musculus, UniProt P58462 326-579).
T1 sequence: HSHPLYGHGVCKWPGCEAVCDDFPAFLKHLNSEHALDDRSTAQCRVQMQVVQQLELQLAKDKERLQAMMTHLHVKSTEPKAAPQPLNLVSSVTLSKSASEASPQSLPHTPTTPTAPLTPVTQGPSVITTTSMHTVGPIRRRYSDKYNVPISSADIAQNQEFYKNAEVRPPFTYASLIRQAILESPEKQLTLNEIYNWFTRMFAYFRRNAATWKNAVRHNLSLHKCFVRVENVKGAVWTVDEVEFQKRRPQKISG
The assay is described as follows: PD-seq (MBP pull-down with sequencing); 20 mM Tris-HCl pH 7.5, 100 mM NaCl, 1.5 mM MgCl2, 0.4 uM protein, 0.1 uM dsDNA library, 30 min, room temperature, amylose pull-down; high values mean tight binding. The conditions noted are these: protein: recombinant; tags: His6-MBP; chain copies: 2; dsDNA, one strand shown. Put shortly:
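A degenerate double-stranded DNA library, filled in with Klenow, was added at 0.1 µM to 0.4 µM His6-MBP-tagged mouse FoxP3 or FoxP1 fragment lacking the N-terminus, expressed in E. coli. Incubation lasted 30 min at room temperature in Tris pH 7.5 buffer with NaCl and MgCl2, after which complexes were collected on amylose resin, washed three times, digested with proteinase K to free the DNA, barcoded by PCR and sequenced by Illumina. Binding is the pooled-replicate reads-per-million enrichment of pull-down over input.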
“GATGATTGTTCTCCCAGCTGATGAATTGTCGTAATCGAGTAAACAAATTTTCCTAATCTTTCTGTTCAAGCGCCATCTAC”: the binding signal is 1.58 RPM ratio (pull-down/input).

In the case of “GATGATTGTTCTCCCAGCTGATGAATTGAAACGATCGAGTAAACAAATTTTCCTAATCTTTCTGTTCAAGCGCCATCTAC”, the binding signal is 0.87 RPM ratio (pull-down/input).

As to “GATGATTGTTCTCCCAGCTGATGAATTATTATAATCGAGTAAACAAATTTTCCTAATCTTTCTGTTCAAGCGCCATCTAC”, the binding signal is 1.5 RPM ratio (pull-down/input).

For “GATGATTGTTCTCCCAGCTGATGAATTCCTGGAGTCGAGTAAACAAATTTTCCTAATCTTTCTGTTCAAGCGCCATCTAC”, the binding signal is 0.712 RPM ratio (pull-down/input).

On to “GATGATTGTTCTCCCAGCTGATGAATTATTCCTCTCGAGTAAACAAATTTTCCTAATCTTTCTGTTCAAGCGCCATCTAC”, for which the binding signal is 1 RPM ratio (pull-down/input).

For “GATGATTGTTCTCCCAGCTGATGAATTACAACTTTCGAGTAAACAAATTTTCCTAATCTTTCTGTTCAAGCGCCATCTAC”, the binding signal is 1.33 RPM ratio (pull-down/input).

“GATGATTGTTCTCCCAGCTGATGAATTAGTTCATTCGAGTAAACAAATTTTCCTAATCTTTCTGTTCAAGCGCCATCTAC”: the binding signal is 0.908 RPM ratio (pull-down/input).

With “GATGATTGTTCTCCCAGCTGATGAATTCCCCTTGTCGAGTAAACAAATTTTCCTAATCTTTCTGTTCAAGCGCCATCTAC”, the binding signal is 0.813 RPM ratio (pull-down/input).

With “GATGATTGTTCTCCCAGCTGATGAATTACGTCTGTCGAGTAAACAAATTTTCCTAATCTTTCTGTTCAAGCGCCATCTAC”, the binding signal was 0.971 RPM ratio (pull-down/input).

Regarding “GATGATTGTTCTCCCAGCTGATGAATTGCGACCATCGAGTAAACAAATTTTCCTAATCTTTCTGTTCAAGCGCCATCTAC”, the binding signal was 1.09 RPM ratio (pull-down/input).

For the sequence “GATGATTGTTCTCCCAGCTGATGAATTGTGAAGCTCGAGTAAACAAATTTTCCTAATCTTTCTGTTCAAGCGCCATCTAC”, the binding signal is 0.905 RPM ratio (pull-down/input).

Consider “GATGATTGTTCTCCCAGCTGATGAATTGCGAGCCTCGAGTAAACAAATTTTCCTAATCTTTCTGTTCAAGCGCCATCTAC”, for which the binding signal was 0.956 RPM ratio (pull-down/input).

Turning to “GATGATTGTTCTCCCAGCTGATGAATTTTTTTAATCGAGTAAACAAATTTTCCTAATCTTTCTGTTCAAGCGCCATCTAC”, the binding signal is 1.01 RPM ratio (pull-down/input).

As for “GATGATTGTTCTCCCAGCTGATGAATTGCATTCGTCGAGTAAACAAATTTTCCTAATCTTTCTGTTCAAGCGCCATCTAC”, the binding signal was 1.33 RPM ratio (pull-down/input).

With “GATGATTGTTCTCCCAGCTGATGAATTGCACAGGTCGAGTAAACAAATTTTCCTAATCTTTCTGTTCAAGCGCCATCTAC”, the binding signal was 0.955 RPM ratio (pull-down/input).

On to “GATGATTGTTCTCCCAGCTGATGAATTTGCTACGTCGAGTAAACAAATTTTCCTAATCTTTCTGTTCAAGCGCCATCTAC”, for which the binding signal is 1.01 RPM ratio (pull-down/input).

On to “GATGATTGTTCTCCCAGCTGATGAATTGCCGGCTTCGAGTAAACAAATTTTCCTAATCTTTCTGTTCAAGCGCCATCTAC”, for which the binding signal is 0.93 RPM ratio (pull-down/input).

On to “GATGATTGTTCTCCCAGCTGATGAATTTAACAGCTCGAGTAAACAAATTTTCCTAATCTTTCTGTTCAAGCGCCATCTAC”, for which the binding signal was 0.889 RPM ratio (pull-down/input).

In the case of “GATGATTGTTCTCCCAGCTGATGAATTTCATATGTCGAGTAAACAAATTTTCCTAATCTTTCTGTTCAAGCGCCATCTAC”, the binding signal is 0.873 RPM ratio (pull-down/input).

Consider “GATGATTGTTCTCCCAGCTGATGAATTTTCGAGATCGAGTAAACAAATTTTCCTAATCTTTCTGTTCAAGCGCCATCTAC”, for which the binding signal is 0.88 RPM ratio (pull-down/input).

Take “GATGATTGTTCTCCCAGCTGATGAATTCCGTGCATCGAGTAAACAAATTTTCCTAATCTTTCTGTTCAAGCGCCATCTAC”: the binding signal is 1.13 RPM ratio (pull-down/input).

In the case of “GATGATTGTTCTCCCAGCTGATGAATTATCGGGGTCGAGTAAACAAATTTTCCTAATCTTTCTGTTCAAGCGCCATCTAC”, the binding signal was 0.806 RPM ratio (pull-down/input).

Take “GATGATTGTTCTCCCAGCTGATGAATTACAGGGCTCGAGTAAACAAATTTTCCTAATCTTTCTGTTCAAGCGCCATCTAC”: the binding signal was 0.853 RPM ratio (pull-down/input).

As for “GATGATTGTTCTCCCAGCTGATGAATTGGGGCATTCGAGTAAACAAATTTTCCTAATCTTTCTGTTCAAGCGCCATCTAC”, the binding signal is 0.986 RPM ratio (pull-down/input).

“GATGATTGTTCTCCCAGCTGATGAATTGGTTGCATCGAGTAAACAAATTTTCCTAATCTTTCTGTTCAAGCGCCATCTAC”: the binding signal is 1.44 RPM ratio (pull-down/input).

Take “GATGATTGTTCTCCCAGCTGATGAATTCACGGGTTCGAGTAAACAAATTTTCCTAATCTTTCTGTTCAAGCGCCATCTAC”: the binding signal is 0.766 RPM ratio (pull-down/input).

For the sequence “GATGATTGTTCTCCCAGCTGATGAATTTGGTTCTTCGAGTAAACAAATTTTCCTAATCTTTCTGTTCAAGCGCCATCTAC”, the binding signal is 0.909 RPM ratio (pull-down/input).

Regarding “GATGATTGTTCTCCCAGCTGATGAATTGCCCCACTCGAGTAAACAAATTTTCCTAATCTTTCTGTTCAAGCGCCATCTAC”, the binding signal is 0.931 RPM ratio (pull-down/input).

“GATGATTGTTCTCCCAGCTGATGAATTTTGCTACTCGAGTAAACAAATTTTCCTAATCTTTCTGTTCAAGCGCCATCTAC”: the binding signal is 0.966 RPM ratio (pull-down/input).

“GATGATTGTTCTCCCAGCTGATGAATTTGGTAGGTCGAGTAAACAAATTTTCCTAATCTTTCTGTTCAAGCGCCATCTAC”: the binding signal is 0.783 RPM ratio (pull-down/input).

Regarding “GATGATTGTTCTCCCAGCTGATGAATTATATGTATCGAGTAAACAAATTTTCCTAATCTTTCTGTTCAAGCGCCATCTAC”, the binding signal is 1.41 RPM ratio (pull-down/input).
